Measured values: the supplement of paper PMC9446081
Hit rate of the full screen: of about 39,000 compounds, about 220 (0.56%) showed activity. The list shows a part of the results.

tested on: Escherichia coli K-12 BW25113; experiment: relative growth (OD600 normalised to plate interquartile mean) (fraction); higher = less growth inhibition, active = 0.2 or less; conditions: 50 µM; LB; incubation time: overnight (16-24 h)
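Also: static incubation at 37 °C against the wild-type strain, values averaged over two biological replicates.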

Row | SMILES | relative growth
1 | NC(=O)NCC#Cc1ccc2c(c1)[C@]1(C(=O)N2)[C@H](c2ccccc2OCCO)N2[C@H](c3ccccc3)[C@H](c3ccccc3)OC(=O)[C@H]2[C@@H]1C(=O)O | inactive: 0.874
2 | COc1ccc(NC(=O)N(C)C[C@@H]2OCCCC[C@H](C)Oc3ccc(NC(=O)c4ccccc4)cc3C(=O)N([C@H](C)CO)C[C@@H]2C)cc1 | inactive: 0.988
3 | C[C@H](CO)N1C[C@H](C)[C@H](CN(C)C(=O)Nc2ccc(C(F)(F)F)cc2)Oc2ccc(NC(=O)Nc3ccc(C(F)(F)F)cc3)cc2CC1=O | inactive: 1.01
4 | COc1ccc(S(=O)(=O)Nc2ccc3c(c2)C(=O)N([C@H](C)CO)C[C@@H](C)[C@@H](CN(C)CC2CCCCC2)OCCCC[C@H](C)O3)cc1 | inactive: 1
5 | C[C@@H]1CN([C@@H](C)CO)C(=O)c2cc(NC(=O)Nc3ccccc3)ccc2O[C@@H](C)CCCCO[C@@H]1CN(C)Cc1ccccc1 | inactive: 1
6 | C=CC[C@H](CC(=O)N[C@@H](CO)Cc1ccccc1)C(=O)N[C@@H](COC(=O)[C@@H](CC=C)Cc1ccc(F)cc1)Cc1c[nH]c2ccccc12 | inactive: 1.03
7 | CCc1nc2c(OCC(=O)c3ccc(Cl)cc3Cl)cccn2c1N(C=O)Cc1ccc(OC)cc1 | inactive: 1.03
8 | C[C@@H]1CCCCO[C@@H](CN(C)S(=O)(=O)c2cccs2)[C@@H](C)CN([C@@H](C)CO)C(=O)c2cc(NC(=O)CCC(F)(F)F)ccc2O1 | inactive: 1.02
9 | O=C(C[C@H]1C[C@H]2c3cc(NC(=O)NC4CCCC4)ccc3O[C@H]2[C@H](CO)O1)NCCN1CCCCC1 | inactive: 1.04
10 | Cc1noc(C)c1NC(=O)Nc1ccc2c(c1)C(=O)N([C@H](C)CO)C[C@H](C)[C@@H](CN(C)C(=O)c1ccccc1)OCCCC[C@H](C)O2 | inactive: 0.999
11 | C[C@H](CO)N1C[C@H](C)[C@H](CN(C)Cc2ccc(C(=O)O)cc2)Oc2c(NC(=O)Nc3cccc4ccccc34)cccc2C1=O | inactive: 0.986
12 | O=C(C[C@@H]1CC[C@@H]2[C@H](COC[C@H](O)CN2S(=O)(=O)c2ccccc2)O1)NCc1ccc2c(c1)OCO2 | inactive: 0.99
13 | COc1ccc2oc(C(C)=O)cc2c1 | inactive: 1
14 | C[C@H]1CN([C@@H](C)CO)C(=O)c2cccc(NC(=O)C3CC3)c2O[C@H]1CN(C)Cc1ccc2c(c1)OCO2 | inactive: 0.963
15 | C[C@H]1CCCCO[C@H](CN(C)Cc2ccc3c(c2)OCO3)[C@@H](C)CN([C@@H](C)CO)C(=O)c2cc(NC(=O)Nc3cccc4ccccc34)ccc2O1 | inactive: 1.01
16 | COc1ccc(NC(=O)N(C)C[C@H]2OCCCC[C@@H](C)Oc3ccc(NC(=O)NC(C)C)cc3C(=O)N([C@H](C)CO)C[C@@H]2C)cc1 | inactive: 1.01
17 | CC(C)NC(=O)NCC[C@H]1CC[C@H](NC(=O)CN(C)C)[C@H](CO)O1 | inactive: 0.97
18 | Cc1cccc(S(=O)(=O)N2C[C@H](O)COC[C@H]3O[C@@H](CC(=O)NCc4ccc5c(c4)OCO5)CC[C@@H]32)c1 | inactive: 1
19 | Cc1ccc(S(=O)(=O)N(C)C[C@@H]2Oc3ccc(NC(=O)CCN4CCOCC4)cc3C(=O)N([C@H](C)CO)C[C@H]2C)cc1 | inactive: 0.994
20 | C[C@H](CO)N1C[C@H](C)[C@H](CN(C)Cc2ccc(C(F)(F)F)cc2)Oc2ccc(NC(=O)Nc3cccc4ccccc34)cc2CC1=O | inactive: 1.01

Row | SMILES | relative growth
21 | C[C@@H]1CN([C@@H](C)CO)C(=O)c2cc(C#Cc3ccccn3)cnc2O[C@H]1CN(C)C(=O)c1cnccn1 | inactive: 0.977
22 | C[C@@H]1CCCCO[C@H](CN(C)C(=O)Nc2ccccc2)[C@H](C)CN([C@H](C)CO)C(=O)c2cc(NC(=O)Nc3ccc(F)cc3)ccc2O1 | inactive: 1.04
23 | C[C@@H]1CCCCO[C@H](CN(C)C(=O)Nc2ccc(C(F)(F)F)cc2)[C@H](C)CN([C@H](C)CO)C(=O)c2cc(N(C)C)ccc2O1 | inactive: 1.03
24 | C[C@@H]1CN([C@H](C)CO)C(=O)c2cc(-c3ccc(F)cc3)cnc2O[C@H]1CN(C)C(=O)Cc1ccccn1 | inactive: 0.992
25 | O=C(O)c1cccnc1 | inactive: 1.19
26 | CC(=O)OCC(=O)C1(O)C(C)CC2C3CCC4=CC(=O)C=CC4(C)C3(F)C(O)CC21C (stereo not given) | inactive: 1.11
27 | C[C@@H]1CN([C@H](C)CO)C(=O)CCCn2cc(nn2)CO[C@H]1CN(C)C(=O)c1cc(-c2ccccc2)on1 | inactive: 0.992
28 | C[C@@H]1CCCCO[C@@H](CN(C)C(=O)Nc2ccccc2)[C@@H](C)CN([C@@H](C)CO)C(=O)c2cc(NS(=O)(=O)c3ccc(Cl)cc3)ccc2O1 | inactive: 0.99
29 | C[C@H](CO)N1C[C@H](C)[C@H](CN(C)Cc2ccc(C(F)(F)F)cc2)Oc2ccc(NC(=O)Nc3ccccc3)cc2CC1=O | inactive: 1.02
30 | COC(=O)c1cn(CC(=O)O)nn1 | inactive: 0.978
31 | COc1ccc(S(=O)(=O)N(C)C[C@H]2Oc3ccc(NC(=O)c4ccncc4)cc3CC(=O)N([C@@H](C)CO)C[C@H]2C)cc1 | inactive: 1.01
32 | COc1cccc(NC(=O)N[C@H]2CC[C@@H](CC(=O)N3CCOCC3)O[C@H]2CO)c1 | inactive: 0.991
33 | CC(C)=C[C@H]1[C@@H](c2nc3ccc(Br)cc3[nH]2)C1(C)C | inactive: 0.954
34 | CCS(=O)(=O)N1CC[C@]2(CC1)CN(Cc1ccc(cc1)OC)[C@H](CO)c1c2c2ccc(cc2n1C)OC | inactive: 1
35 | C[C@H]1CCCCO[C@H](CN(C)S(=O)(=O)c2ccc(Cl)cc2)[C@@H](C)CN([C@@H](C)CO)C(=O)c2cc(NC(=O)Nc3ccccc3)ccc2O1 | inactive: 1.02
36 | C[C@H]1CN([C@@H](C)CO)C(=O)c2cc(C#CC(C)(C)O)cnc2O[C@@H]1CN(C)C(=O)CN(C)C | inactive: 1
37 | COCCOC(=O)N1C(=O)[C@@]2(c3cc(C#Cc4ccc(OC)cc4)ccc31)[C@H](c1ccccc1OCCO)N1[C@H](c3ccccc3)[C@H](c3ccccc3)OC(=O)[C@H]1[C@@H]2C(=O)N1CCN(c2ncccn2)CC1 | inactive: 1.08
38 | CC(=O)N(C[C@@H](O)CO)c1c(I)c(C(=O)NCCO)c(I)c(C(=O)NC[C@@H](O)CO)c1I | inactive: 0.979
39 | C[C@H](CO)N1C[C@H](C)[C@H](CN(C)Cc2ccc(Oc3ccccc3)cc2)Oc2c(NC(=O)Nc3ccc4c(c3)OCO4)cccc2C1=O | inactive: 0.999
40 | O=C1C(NS(=O)(=O)c2ccc(Br)cc2)=C(c2ccc(OC(F)(F)F)cc2)C(=O)c2ccccc21 | inactive: 0.968

Row | SMILES | relative growth
41 | Cc1cc(O)c(-c2ccc([C@@H](C)CN)cc2)c2c1[nH]c(=O)c1sccc12 | inactive: 1.03
42 | Cc1noc(C)c1S(=O)(=O)Nc1ccc2c(c1)CC(=O)N([C@@H](C)CO)C[C@@H](C)[C@@H](CN(C)S(=O)(=O)c1c(C)noc1C)O2 | inactive: 0.991
43 | C[C@H](O)C#Cc1cnc2c(c1)C(=O)N([C@@H](C)CO)C[C@H](C)[C@@H](CN(C)C(=O)Nc1ccc(C(F)(F)F)cc1)O2 | inactive: 0.963
44 | COc1ccc(CN(C)C[C@H]2OCCCC[C@@H](C)Oc3ccc(NS(=O)(=O)c4cccs4)cc3C(=O)N([C@@H](C)CO)C[C@H]2C)cc1 | inactive: 0.978
45 | C[C@H]1CN([C@@H](C)CO)C(=O)c2cc(NS(=O)(=O)c3cccs3)ccc2O[C@H]1CN(C)Cc1ccncc1 | inactive: 0.986
46 | COc1ccc(NC(=O)Nc2cccc3c2O[C@@H](CN(C)Cc2ccc(Oc4ccccc4)cc2)[C@H](C)CN([C@H](C)CO)C3=O)cc1 | inactive: 1.02
47 | Cc1[nH]c(N)nc(=O)c1CC(=O)O | inactive: 1.01
48 | O=C(C[C@@H]1C=C[C@H](NC(=O)Cc2ccccn2)[C@H](CO)O1)NCCCN1CCOCC1 | inactive: 1.01
49 | CC(C)(C)[S@](=O)N1Cc2cc(C(=O)NCc3ccc4c(c3)OCO4)nc(-c3cccc(-c4ccncc4)c3)c2[C@@H]1CCO | inactive: 1.01
50 | Cc1ccc(S(=O)(=O)N(C)C[C@H]2OCCCC[C@H](C)Oc3ccc(NC(=O)Nc4ccccc4)cc3C(=O)N([C@@H](C)CO)C[C@H]2C)cc1 | inactive: 1.02
51 | COC(=O)c1ccc[nH]1 | inactive: 1.02
52 | C[C@@H]1CN([C@H](C)CO)C(=O)CCCn2nncc2CO[C@@H]1CN(C)S(C)(=O)=O | inactive: 1.01
53 | Cc1ccc(S(=O)(=O)Nc2ccc3c(c2)C(=O)N([C@@H](C)CO)C[C@@H](C)[C@@H](CN(C)Cc2ccncc2)OCCCC[C@@H](C)O3)cc1 | inactive: 1.02
54 | C[C@H](O)C#Cc1ccc2c(c1)O[C@@H](CN(C)C(=O)Cc1ccccn1)[C@@H](C)CN([C@H](C)CO)S2(=O)=O | inactive: 1.01
55 | O=C(C[C@H]1C=C[C@H](NC(=O)CN2CCOCC2)[C@@H](CO)O1)NC1CCCCC1 | inactive: 0.978
56 | C[C@H]1CCCCO[C@@H](CN(C)C)[C@@H](C)CN([C@@H](C)CO)C(=O)c2cc(NC(=O)Nc3ccc(C(F)(F)F)cc3)ccc2O1 | inactive: 0.934
57 | COC(=O)CCCCCCC(=O)N/N=C/[C@H](O)[C@@H](O)[C@@H](O)[C@H](O)C(=O)O | inactive: 0.977
58 | O=C(C[C@@H]1C=C[C@H](NC(=O)c2ccncc2)[C@@H](CO)O1)NCc1ccncn1 | inactive: 0.988
59 | CN(C)C(=O)c1cccc(-c2cccc(-c3nc(C(=O)N4CCCCC4)cc4c3[C@H](CCO)N([S@@](=O)C(C)(C)C)C4)c2)c1 | inactive: 0.824
60 | C[C@@H]1CN([C@H](C)CO)C(=O)c2cc(NC(=O)Nc3ccc(F)cc3)ccc2O[C@@H](C)CCCCO[C@H]1CN(C)C(=O)C1CCCCC1 | inactive: 1.01
